Experimental data as given in the supplement of paper PMC11417369.
± gives the standard deviation of the averaged measurements. The list shows a part of the results.

What follows are sequences tested on PfAP2-G AP2 domain (GST-tagged) (assay: gcPBM binding intensity (ln(normalized median fluorescence intensity)); higher = stronger DNA binding).
In short: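 Binding of GST-tagged P. falciparum DNA-binding domains, expressed in E. coli and used at about 25 μg on average, was carried out for 1 h in 1× PBS containing 1% milk, 0.2 mg/ml BSA, 0.5% salmon testes DNA and 0.03% Triton X-100. The target was an Agilent 4 × 180k array of primer-extended double-stranded 36-bp intergenic genomic probes plus negative controls, read with Alexa488 anti-GST antibody at 488 nm. Binding intensity is the highest Masliner-normalised natural-log median intensity across replicate spots of either probe orientation.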

Sequence	gcPBM binding intensity (ln)
TATAATTATGATGATAGTACGTATGAGTTCAAAACA [XGTACX_site4211]	11.1 ± 0.62
CACATTTTTTAAATATTTTTCTACTCCATAATGTTT [CACACA_negctrl_site557]	10.3 ± 0.18
TTAATATAGGGAAAAAAAAGAAAATCGAAAATGTGT [CACACA_negctrl_site834]	10.02 ± 0.099
ATAGTTACACGCCAAAAAAAAAAAAAAAAAAAAAAA [CACACA_negctrl_site1133]	9.95 ± 0.45
ATAAATAGTATTATATGTACACATAATATTTATAAA [XGTACX_site4751]	11.5 ± 0.64
TTTCTCTCTTATAAAATACACACGAACAATCATATT [CACACA_site509]	10.1 ± 0.16
AAAAATGGTGTTAACACACACATATATATATATATA [CACACA_site571]	10.2 ± 0.46
TTAAAATGATTGTTACTTTTTTTTCCGTTTTCTTAA [CACACA_negctrl_site1195]	9.97 ± 0.028
TAACTTCAAAAATCTTGTACATAAATATATAAAACA [XGTACX_site8574]	10.9 ± 0.67
AATTTTGTCCTATGTTGTACTATTTTGCTCTATTTT [XGTACX_site7139]	11.2 ± 0.59
ATTACTAAAACAAAATGTACATATGATTTAAGAAAA [XGTACX_site5992]	11.1 ± 0.54
TCTTGATCTTATATATATCTACAATATTTTATACAT [TGCATGCA_negctrl_site569]	9.975 ± 0.021
ATTACAAATATAATATGTACTTAAATATAATTAAAA [XGTACX_site7038]	11.2 ± 0.75
TTTTTTTTTTAGAGTACACACTTTTTTACATTTATG [CACACA_site5990]	11.6 ± 0.91
GAAAAATTTAATTATTGTACGTTTCATCTATATTTA [XGTACX_site414]	11.2 ± 0.86
TTTTTGTTTTTTTTGTGTACTTATCAAATATATATA [XGTACX_site7273]	11.6 ± 0.83
ATATATATATATATTGCACACATATAAATATATATA [CACACA_site8167]	9.99 ± 0.51
TAAAACTTAATATAAACACACAAAAATTAATAAATA [CACACA_site4370]	10 ± 0.13
CAATATTATAGATATACACACATAATGTGTAAAAAC [CACACA_site6631]	10.2
CAAAAAAAATTATACACACACACACCCATATATATA [CACACA_site1044]	10.2 ± 0.18
TACTATATATTATATAGTACATAAGATATACAACAT [XGTACX_site2929]	11 ± 0.61
AAGAAAATTAACCCATGTACTTATGTAGATAGCAAG [XGTACX_site1049]	11.1 ± 0.6

Sequence	gcPBM binding intensity (ln)
AATTTTTTTATAGCACGTACAAAAATACAAAATACA [XGTACX_site1569]	11.4 ± 0.73
AATTTTCAATAGTATACACACAATTCTATAAATATA [CACACA_site6650]	9.84 ± 0.042
AATGAGAATTTTATTACACACTTTAATATATTTTCA [CACACA_site784]	9.775 ± 0.078
CACGTGAAAATACAAGCATGCAAGCTTTTTTTTTCT [TGCATGCA_site642]	9.64 ± 0.31
AATTATATAAGCCACGCATGTGTGCATAAAAATACA [TGCATGCA_site114]	10.2 ± 0.14
AAAAAAATAAATAAATGTACACATATATATATATAT [XGTACX_site4350]	11.3 ± 0.71
ATCATTTATATTTTATGTACATATATAATTATATTT [XGTACX_site2129]	11.3 ± 0.74
TAGAGGAATATAATATGTACATAATATAATGTATAT [XGTACX_site2838]	11.2 ± 0.68
AGTGAAATTTTAGTCACACAGTTTTATCTTTAAGAA [CACACA_site5202]	9.94 ± 0.15
TTATGTCTAATGAAATGTACATGAATAAATTAAAGT [XGTACX_site8138]	11.2 ± 0.52
AGCCCAAAAAAGTAGACATGCAAAAACTTTACAACT [TGCATGCA_site550]	10.01 ± 0.057
TATATATAAACATAATGTACATATAATAAGTAATAT [XGTACX_site497]	11.1 ± 0.5
AAAAAAAAAAAGAAGGGTACATATTATATATAATAT [XGTACX_site6204]	11.2 ± 0.76
AAAATGTAATATTGGGTGCACAATAAGTTTGATGTC	10.4 ± 0.22
TAGTATTAAATATATACACACATATATACCTATAGA [CACACA_site5219]	9.885 ± 0.049
TACTATATATATATATATATATATATATATATTTAT [GTGCAC_negctrl_site593]	9.455 ± 0.007
AAAAATTCAATAGGACGTACTAAAACATTCATTAAT [XGTACX_site1712]	11.2 ± 0.84
TTATAAATAATGAGAAACATTAAATTTAATCATAAA [CACACA_negctrl_site523]	9.715 ± 0.049
TTTAGTGTTATAAAAAGTACATAATAATTCCTTTTC [XGTACX_site3208]	11.3 ± 0.91
TCATAGTATAAACACACACACACACCCATATATATA [CACACA_site8512]	10.2 ± 0.3
AATATGTACAGACATACACACATATTTATATTTATA [CACACA_site6694]	11.2 ± 0.84
TTATATAAAGAATGTACACACAGAAATGCACAGACA [CACACA_site5288]	11.3 ± 0.69
